The values that follow come from paper PMC4336329 (PLoS ONE, 2015).

The campaign covered roughly 310,000 compounds. About 2,200 (0.71%) showed an effect of 50% or more. Effects have a minus sign here. The list shows a part of the results.

For the assay, the target named is human ether-à-go-go-related gene (hERG) potassium channel (human, UniProt Q12809). Put plainly: primary screen, population patch clamp on CHO cells stably expressing hERG.
Sequence of human ether-à-go-go-related gene (hERG) potassium channel (Q12809 whole entry, looked up): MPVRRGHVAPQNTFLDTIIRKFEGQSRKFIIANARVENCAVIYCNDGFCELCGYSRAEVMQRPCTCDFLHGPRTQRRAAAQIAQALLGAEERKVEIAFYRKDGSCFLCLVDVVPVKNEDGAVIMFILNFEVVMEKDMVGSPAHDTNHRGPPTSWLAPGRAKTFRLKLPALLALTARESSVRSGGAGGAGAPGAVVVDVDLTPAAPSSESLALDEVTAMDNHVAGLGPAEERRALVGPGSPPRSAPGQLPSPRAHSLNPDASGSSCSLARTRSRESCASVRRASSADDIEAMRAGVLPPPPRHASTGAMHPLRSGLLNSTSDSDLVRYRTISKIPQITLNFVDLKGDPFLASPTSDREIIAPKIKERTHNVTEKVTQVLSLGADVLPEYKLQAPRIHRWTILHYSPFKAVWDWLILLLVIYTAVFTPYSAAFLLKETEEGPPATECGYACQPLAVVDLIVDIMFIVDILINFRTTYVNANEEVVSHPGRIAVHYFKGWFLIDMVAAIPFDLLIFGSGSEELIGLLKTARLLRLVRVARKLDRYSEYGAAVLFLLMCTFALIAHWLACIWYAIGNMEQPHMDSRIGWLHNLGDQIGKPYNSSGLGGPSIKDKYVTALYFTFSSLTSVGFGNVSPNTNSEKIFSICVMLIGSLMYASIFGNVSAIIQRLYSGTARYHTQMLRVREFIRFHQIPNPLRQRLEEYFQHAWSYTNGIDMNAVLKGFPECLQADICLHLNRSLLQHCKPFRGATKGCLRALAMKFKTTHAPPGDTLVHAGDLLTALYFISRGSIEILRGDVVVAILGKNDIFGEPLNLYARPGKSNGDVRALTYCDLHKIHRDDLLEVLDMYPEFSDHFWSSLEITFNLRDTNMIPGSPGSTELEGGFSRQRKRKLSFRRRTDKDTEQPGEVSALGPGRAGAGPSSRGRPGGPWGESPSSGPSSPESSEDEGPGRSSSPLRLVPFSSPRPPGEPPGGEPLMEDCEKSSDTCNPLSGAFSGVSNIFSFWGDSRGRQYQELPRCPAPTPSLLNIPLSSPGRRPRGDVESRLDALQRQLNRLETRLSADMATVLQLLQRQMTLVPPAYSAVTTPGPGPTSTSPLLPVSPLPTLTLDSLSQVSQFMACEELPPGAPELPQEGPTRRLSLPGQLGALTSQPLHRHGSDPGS
With `Nc1nc(Sc2ncccc2[N+](=O)[O-])n[nH]1`, the “hERG current change (%, negative = inhibition) at 1uM” value is 10.3%.
Regarding `CCOC(=O)c1sc2nccc(N(C)C)c2c1N=CNOCc1c(F)cccc1Cl`, the “hERG current change (%, negative = inhibition) at 1uM” value amounted to 4.42%.
Regarding `Cc1ccccc1OCC(=O)N/N=C/c1ccc(N(C)C)cc1`, the “hERG current change (%, negative = inhibition) at 1uM” value was 2.34%.
Regarding `O=S(=O)(Nc1ccc(S(=O)(=O)N2CCOCC2)cc1)c1ccccc1`, the “hERG current change (%, negative = inhibition) at 1uM” value came to 1.55%.
As to `CC(=O)c1ccc(N2CCN(c3ccc(S(=O)(=O)N4CCN(C)CC4)cn3)CC2)cc1`, the “hERG current change (%, negative = inhibition) at 1uM” value was 7.23%.
For `CCc1nnc(NC(=O)OCc2ccccc2)s1`, the “hERG current change (%, negative = inhibition) at 1uM” value is reported as 3.72%.
For `c1cc(Nc2cccc3nccnc23)c2nccnc2c1` the value was 8.07%; for `O=C(Nc1ccccc1N1CCN(C(=O)c2ccc(Cl)cc2)CC1)c1ccc2c(c1)OCO2`, -5.35%; for `O=C(COC(=O)c1cccs1)Nc1ccccc1C(F)(F)F`, 10.5%.
Then `CC(=O)c1c(C)oc2ccc(NS(=O)(=O)c3ccc(F)cc3C)cc12`, with 2.39%.
`CCCc1nc(SCC(=O)Nc2nc3c(s2)CCCC3)c2ccccc2n1`: the “hERG current change (%, negative = inhibition) at 1uM” value is 9.16%.
Regarding `CC(Oc1ccc(F)cc1)C(=O)Nc1cc(S(=O)(=O)N2CCOCC2)ccc1N1CCCCC1` (centres unmarked), the “hERG current change (%, negative = inhibition) at 1uM” value was 14.1%.
For `COc1ccc(-n2nnnc2SCC(=O)NNC(=O)c2ccc([N+](=O)[O-])cc2)cc1` the value was 2.98%; for `COc1ccc(NC(=O)CCCNC(=O)Cn2cnc3sc(C)c(C)c3c2=O)c(OC)c1`, 16.4%.
For `CC1(C)Cc2ccccc2-c2nnc(SCc3ccc(C#N)cc3)n21` the value was -32.4%.
For `Cc1noc(C)c1COc1ccc(C(=O)Nc2ccccc2)cc1` the value was 17.4%; for `Cc1cc(C)nc(SCc2ccc(C(=O)N/N=C/c3ccccn3)cc2)n1`, -11.7%; for `CCOc1ccc(Nc2nc(N)nc(CCl)n2)cc1`, 7.02%.
Consider `O=c1[nH]c(Sc2ccc([N+](=O)[O-])cc2[N+](=O)[O-])nc2ccccc12`, for which the “hERG current change (%, negative = inhibition) at 1uM” value came to 10.7%.
For `CS(=O)(=O)Nc1ccccc1C(=O)O`, the “hERG current change (%, negative = inhibition) at 1uM” value is listed as -16.3%.
As for `O=C(Nc1nc2ccc(Cl)cc2s1)[C@@H]1CCCN1C(=O)c1cccs1`, the “hERG current change (%, negative = inhibition) at 1uM” value worked out at 7.76%.
Then `Cc1ccc(CNC(=O)c2ccc(Cn3nc(C)c(Cl)c3C)o2)cc1`, with 5.48%.
As to `S=C(NCCN1CCCCC1)Nc1ccccc1`, the “hERG current change (%, negative = inhibition) at 1uM” value came out at 13.5%.
For `CCOc1cc(C(=O)N[C@@H](C)C(=O)N2CCC3(CC2)NCCc2[nH]cnc23)cc(OCC)c1OCC` the value was 18%; for `CC(C)C[C@@H]1NC(=O)[C@H](C(C)C)NC(=O)c2cc([N+](=O)[O-])cc(I)c2OCC[C@@H](C(N)=O)NC1=O`, 14.2%; for `Cc1ccc(N2CC(C(=O)NC3CC3)CC2=O)cc1` (centres unmarked), 17.4%.
For `C/C(CCc1oc2ccc(Cl)cc2c1-c1ccc(C)o1)=N\O` the value was 26%; for `Cc1ccc[n+](Cc2ccc([N+](=O)[O-])cc2)c1.[Br-]`, 16.4%.
For `O=C(NCc1cccc(F)c1F)C1CCC(=O)N(C2CCCCCC2)C1` (centres unmarked) the value was 3%; for `Clc1ccccc1CN1CCSCC1`, 17.8%.
As to `C=CCc1cc(S(=O)(=O)c2ccc(O)c(CC=C)c2)ccc1O`, the “hERG current change (%, negative = inhibition) at 1uM” value worked out at 12%.
Then `COc1ccc(OC)c(C(O)c2coc3ccc(O)c(CN(C)C)c23)c1` (centres unmarked), with 0.349%.
With `CCC(=O)Nc1nnc(SCCOC)s1`, the “hERG current change (%, negative = inhibition) at 1uM” value is 3.05%.
For `CCN(CC)c1ccc(N=Cc2ccccc2[N+](=O)[O-])cc1` the value was 6.57%; for `C/C(CC(=O)NC1C2CC3CC(C2)CC1C3)=N\NC(=O)Cc1cccs1` (centres unmarked), 9.21%.
As to `CC(=O)c1ccc(NC(=O)c2cc(C)no2)cc1`, the “hERG current change (%, negative = inhibition) at 1uM” value is given as 5.22%.
Take `CCc1nnc(NC(=O)Cc2ccc(OC)c(OC)c2)s1`: the “hERG current change (%, negative = inhibition) at 1uM” value is recorded as 16.2%.
Then `Cn1c(COc2ccccc2Br)nc2ccccc21`, with 14.3%.
For `Cc1ccc(N2CCCn3c2cc(C)c(C#N)c3=O)cc1C` the value was -0.767%; for `CCNC(=S)NNC(=O)c1cc(Br)cs1`, 7.23%.
For `COC(=O)c1ccccc1NC(=S)N(Cc1ccc2c(c1)OCO2)Cc1cc2cccc(C)c2[nH]c1=O` the value was 9.7%.
Regarding `CCOCCCNC(=S)NC1CC2CCC(C1)N2Cc1ccccc1` (centres unmarked), the “hERG current change (%, negative = inhibition) at 1uM” value came to 2.8%.
Then `Cc1nc(CCNC(=O)c2ccccc2)cs1`, with 21.3%.
For `COc1ccc(N2C(=O)c3cccc4cccc(c34)C2=O)cc1` the value was 16.9%; for `COc1ccc(-n2c(C)cc3cc(OC(C)=O)ccc32)cc1`, 13.6%.
Regarding `O=C(/C=C/c1cccc(C(F)(F)F)c1)Nc1cccc(C(F)(F)F)c1`, the “hERG current change (%, negative = inhibition) at 1uM” value is given as 10.7%.
Then `COC(=O)c1cccc(Nc2cc(C)nc(-c3ccccc3O)n2)c1`, with 6.28%; and `CCCCC(=O)N1C/C=C\C(c2ccc(OC)cc2)N(Cc2ccc(F)cc2)C(=O)[C@H]1Cc1ccccc1` (some centres unmarked), with 10%.
For `N=C1/C(=C\c2coc3ccc(O)cc3c2=O)C(=O)N=C2SC=CN12` the value was 7.72%; for `Cc1cccc(/C=N/NC(=O)c2cc(Br)ccc2O)n1`, 10.5%.
Consider `Cc1ccc([N+](=O)[O-])c2c1C(N1CCCC1)C(C)(C)O2` (centres unmarked), for which the “hERG current change (%, negative = inhibition) at 1uM” value is on record as 7.76%.
For `CCC(C(=O)NCCCc1ccccc1)n1nc(C)c2c(C)n(-c3ccccc3)nc2c1=O` (centres unmarked) the value was -9.75%.
As for `Cc1ccc(NS(=O)(=O)c2cc(C(=O)N3CCOCC3)ccc2C)cc1C`, the “hERG current change (%, negative = inhibition) at 1uM” value was 1.51%.
Then `COc1ccc(/C=C2/SC(c3ccc(C)cc3)=NC2=O)cc1OC`, with 9.52%; and `COc1ccc(S(=O)(=O)N2CCOCC2)cc1NC(=O)CO/N=C/c1ccccc1OC(F)F`, with 4.29%.
Then `COc1ccc(NC(=S)NCC(O)c2ccccc2)c(OC)c1` (centres unmarked), with 4.22%; and `Nn1c(SCC(=O)Nc2c(F)cc(F)cc2Br)nnc1C1CCCCC1`, with 11.5%; and `C=CCn1c(SCc2c(F)cccc2Cl)nnc1-c1ccco1`, with 9.2%.
For `CC1CC(C)(C)NC(=S)N1CC(=O)N(C)Cc1ccccc1` (centres unmarked) the value was -3.93%; for `Fc1ccc(-c2cc(C(F)(F)F)nc(-n3cccn3)n2)cc1`, 7.64%; for `CC1CCCc2sc3ncn(N)c(=N)c3c21` (centres unmarked), 8.92%.
Consider `COc1ccccc1Nc1nn2c(=O)c3ccc(C(=O)N4CCCCC4)cc3nc2s1`, for which the “hERG current change (%, negative = inhibition) at 1uM” value is listed as 11.3%.
On to `COc1ccccc1C(=O)NC(=O)COC(=O)CCS(=O)(=O)c1ccc(C)cc1`, for which the “hERG current change (%, negative = inhibition) at 1uM” value was determined as 7.42%.
Then `COCCNC(=S)N1CCC(NC(=O)Nc2ccc(C)cc2)CC1`, with 9.33%; and `Cc1cccc(NC(=O)Nc2cccc(F)c2)n1`, with 5.52%.
For the compound `COc1cc(C(=O)NC(=S)Nc2ccc3c(c2)C(=O)N(C)C3=O)cc(OC)c1OC`, the “hERG current change (%, negative = inhibition) at 1uM” value is recorded as 10.2%.
On to `O=C(CN1CCN(CC(=O)Nc2ccc(-c3ccccc3)cc2)CC1)Nc1ccc(F)cc1`, for which the “hERG current change (%, negative = inhibition) at 1uM” value is listed as -13.7%.
In the case of `O=C(O)c1ccc(N/N=C/c2cccc(F)c2)cc1.O=S(=O)(O)O`, the “hERG current change (%, negative = inhibition) at 1uM” value stood at 11.6%.
Then `COC(=O)Nc1ccc(S(=O)(=O)N2CCC(C(=O)N3CCCC(C)C3)CC2)cc1` (centres unmarked), with 41.1%; and `CCN(CC)c1ccc(/C=N/n2c(C)nc3ccccc3c2=O)cc1`, with 5.43%.
For `Cc1cc(C)nc(N2CCC(C(=O)N3CCN(c4cc(Cl)ccc4C)CC3)CC2)n1` the value was 5.63%; for `Cn1cnc2c1c(=O)n(Cc1c(Cl)cccc1Cl)c(=O)n2C`, 5.21%.
For `Cc1ccc(Nc2nnc(SCC(=O)Nc3cccc(S(=O)(=O)N4CCCCC4)c3)s2)cc1`, the “hERG current change (%, negative = inhibition) at 1uM” value amounted to 12%.
For the compound `Cc1ccc(N2C(=O)C(CC(=O)Nc3cccc(F)c3)N(C3CC3)C2=O)cc1` (centres unmarked), the “hERG current change (%, negative = inhibition) at 1uM” value was found to be 2.9%.
`O=C(N/N=C/c1ccccc1OC(F)F)c1cc(-c2ccncc2)nc2ccccc12`: the “hERG current change (%, negative = inhibition) at 1uM” value was 18.7%.
Then `CCn1c(=S)[nH]c2cc(S(=O)(=O)N3CCCCC3)ccc21`, with 10.9%; and `CCOC(=O)C1CCCCN1S(=O)(=O)c1ccc2c(c1)CC(C)N2C(=O)C1CCC1` (centres unmarked), with 9.36%.
As to `Cc1ccc(NC(=O)CS(=O)CC(=O)N(c2ccccc2F)C(C)C(=O)NC2CCCC2)cc1` (centres unmarked), the “hERG current change (%, negative = inhibition) at 1uM” value is given as 9.32%.
Then `CCn1c(-c2ccccc2)c(C(=O)O)c2ccccc21`, with 10.2%; and `Cc1cc(NC(=O)COC(=O)[C@@H](NS(=O)(=O)c2ccc(Br)cc2)C(C)C)no1`, with 6.51%; and `COc1cccc(C=Nc2ccc(C)c(F)c2)c1O`, with 6.06%.
Then `Cc1c(Cl)cccc1NC(=O)Cn1cc(C(F)(F)F)cc(Cl)c1=O`, with 4.87%.
Turning to `COCCCNC(=O)CCC(=O)NNc1nc2ccccc2c2nc(C)nn12`, the “hERG current change (%, negative = inhibition) at 1uM” value is reported as 16.2%.
For `Cc1ccc(-n2c(O)c(C=NCCN3CCNCC3)c(=O)[nH]c2=S)cc1` the value was 13.3%.
For `Cc1ccc(-c2c(C(=O)N/N=C/c3ccoc3)nnn2-c2nonc2N)cc1` the value was 13%; for `COCCNC(=O)CN(C(=O)CCC(=O)Nc1nccs1)c1ccccc1OC`, 13.2%; for `CCOC(=O)c1cc(S(=O)(=O)Nc2cccc(OC)c2)cn1C`, 13.7%.
Turning to `COc1cc(N=C2C(=O)N3c4c(cccc42)C(C)=CC3(C)C)cc(OC)c1`, the “hERG current change (%, negative = inhibition) at 1uM” value stood at 13%.
In the case of `COc1ccc(N(CC(=O)NC2CC2)S(=O)(=O)c2ccccc2)cc1`, the “hERG current change (%, negative = inhibition) at 1uM” value stood at 16%.
